# Laboratory results as given in PubChem BioAssay AID686979 (National Center for Advancing Translational Sciences (NCATS), 2013).
# Out of some 420,000 compounds screened, about 50,000 (12%) were called active. Inconclusive results, whose numbers are uncertain, are shown with a selection of clear calls. Calls follow the shape of the dose curve; as a rule, active = well fitted inhibition curve with a large enough effect; inconclusive = small, poorly fitted or top-dose-only effect; inactive = flat fitted curve, though single readings scatter. Potencies of inconclusive entries are left out as doubtful fits.
# Experiment: qHTS for Inhibitors of human tyrosyl-DNA phosphodiesterase 1 (TDP1): qHTS in cells in presence of CPT; also: nearly all actives have a fitted effect of over 55% in size
# Settings: chicken DT40 Tdp1-/-;hTDP1 cells + 20 nM CPT, ATP luminescence, 48 h; activity change, negative = growth inhibition: at 46.2 µM (top of the series)
# Method in brief: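 Cell growth measured by CellTiter-Glo luminescence after a minimum 48 h, 37 C compound exposure with 20 nM CPT in Tdp1-knockout DT40 cells stably expressing hTDP1, seeded 400/well; qHTS titration format.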
# % is scaled to controls: 0 for no effect and ±100 for the full control effect; potency is read from the fitted curve at half-maximal effect; tags tell the direction and shape of the fitted curve.
SMILES,Potency,"activity change, negative = growth inhibition"
COC(=O)c1ccc2nc(-c3ccc(F)cc3)c(Cc3ccccc3OC)n2c1,active: 20.6 µM,–
CC(CCc1ccccc1)NC(=O)CSc1n[nH]c(-c2ccccc2Cl)n1 (stereo not drawn),"inconclusive [inhibitor, single point]",–
O=C(CSc1ncccn1)NC(=O)NC1CCCC1,–,inactive: -1.03%
COc1ccccc1CNC(=O)CN1CCC(n2cnc3cc(F)ccc32)CC1,–,inactive: -7.82%
CC(C)c1ncc(C(O)c2cccc3ccccc23)n1C (stereo not drawn),"inconclusive [inhibitor, single point]",–
Cc1nc2ccc(NC(=O)c3cc(S(=O)(=O)N(C)c4ccccc4)ccc3Cl)cc2s1,active: 1.84 µM,–
COc1cccc(C(O)c2nc(-c3ccc(OC)nc3)cs2)c1 (stereo not drawn),"inconclusive [inhibitor, single point]",–
Cc1cc(C)c(NC(=O)C(C)n2nc(C)c3sc4ccccc4c3c2=O)c(C)c1 (stereo not drawn),–,inactive: 3.29%
Cc1cc(Cl)ccc1NC(=O)C1CCCN(c2nnc(C)c3c(C)n(-c4ccccc4)nc23)C1 (stereo not drawn),–,inactive: 5.61%
CN1C(=O)C(C)(C)c2cc(S(=O)(=O)NCC(=O)NCc3ccccc3)ccc21,–,inactive: -21.6%
Cc1ccc(NC(=O)CNCc2ccc(Cl)cc2Cl)cc1S(=O)(=O)N(C)C,"inconclusive [inhibitor, single point]",–
Cc1cnc(-n2ncc(C(=O)NCc3ccncc3)c2C(C)C)nc1-c1ccc(F)cc1,"inconclusive [inhibitor, single point]",–
O=S(=O)(NCC(c1ccco1)S(=O)(=O)c1cccs1)c1ccccc1 (stereo not drawn),"inconclusive [inhibitor, single point]",–
Cc1ccc(OC(C)C(=O)N2CCN(CCc3ccccn3)CC2)cc1C (stereo not drawn),–,inactive: -6.35%
Cc1cc(F)ccc1NC(=O)C1CCCN(C(=O)c2cnn(-c3ccccc3)c2-n2cccc2)C1 (stereo not drawn),"inconclusive [inhibitor, single point]",–
Cc1cccc(-c2csc(N)c2C(=O)OC(C)C)c1,"inconclusive [inhibitor, partial curve]",–
COc1cc(C(O)c2nc(-c3ccc4ccccc4c3)cs2)ccc1F (stereo not drawn),active: 23.1 µM,–
CCC1Sc2ccc(S(=O)(=O)CCC(=O)Nc3cc(C)ccn3)cc2NC1=O (stereo not drawn),–,inactive: -1.49%
COc1ccc(OC(=O)c2cn(-c3cccc(OC)c3)c(=O)c3ccccc23)cc1,"inconclusive [inhibitor, full curve, poor fit]",–
CNc1ccc(C2(O)C(=O)c3ccccc3C2=O)cc1,–,inactive: -3.96%
O=C(Cn1ncc(Cl)c(Cl)c1=O)NC(=O)NC1CCCCC1,active: 2.91 µM,–
CC(/C=N/n1c(-c2ccc(Cl)cc2)n[nH]c1=S)=C\c1ccco1,"inconclusive [inhibitor, single point]",–
N#Cc1cc(N2CCOCC2)nc2ccccc12,–,inactive: -2.17%
O=C(/C=C/c1ccco1)NC(=S)Nc1ccc(N2CCOCC2)c(Cl)c1,active: 5.17 µM,–
Cc1ccc(S(=O)(=O)N2CCC(C(=O)N3CCCCCCC3)CC2)cc1,active: 20.6 µM,–

SMILES,Potency,"activity change, negative = growth inhibition"
O=C(COC(=O)c1ccc(O)cc1)NC1CCCCCC1,–,inactive: 1.63%
CCOC(=O)c1[nH]c(C)c(C(=O)Nc2cc(Cl)ccc2C)c1C,active: 0.146 µM,–
CCSc1nnc2c3cc(CC)ccc3n(C)c2n1,"inconclusive [inhibitor, single point]",–
O=C(COc1nsnc1N1CCOCC1)Nc1ccc(Br)cc1,"inconclusive [inhibitor, single point]",–
COc1cccc(-c2cccc(NC(=O)C3CCN(Cc4ccon4)CC3)c2)c1,–,inactive: -1.48%
NC(=S)Nc1ccc(Cl)cc1Cl,–,inactive: -26.8%
NC(Cc1ccccc1)c1csc(Nc2cc(Oc3ccccc3)ncn2)n1 (stereo not drawn),"inconclusive [inhibitor, single point]",–
COc1ccc(C2C(C#N)=C(C)NC(C)=C2C#N)c(OC)c1,–,inactive: 4.31%
COC(=O)[C@@]1(Cc2ccc(F)cc2)[C@H]2c3cc(C(=O)N4CCCC4)n(Cc4ccc(C)o4)c3C[C@H]2CN1C(=O)c1ccccc1,"inconclusive [inhibitor, single point]",–
CCCC(=O)NC(=S)Nc1cccc(NC(=O)c2ccccc2Cl)c1,"inconclusive [inhibitor, single point]",–
Cc1ccc(S(=O)(=O)N2C[C@]3(O)C[C@@H]4C(=O)N(c5ccccc5)C(=O)[C@@H]4C[C@]3(OC(=O)NC3CCCC3)C2)cc1,"inconclusive [inhibitor, single point]",–
COc1ccccc1CNc1ncnc2ccc(-c3ccccc3C#N)cc12,"inconclusive [inhibitor, single point]",–
Cc1cccc(-c2nnc(SCC3CNC(=O)O3)n2-c2ccc(Cl)cc2)c1 (stereo not drawn),"inconclusive [inhibitor, single point]",–
CCCc1nnc(NC(=O)CSc2nnc3c4ccccc4n(CC)c3n2)s1,"inconclusive [inhibitor, single point]",–
O=C(NCCc1nnc2ccc(NCC3CCCO3)nn12)c1ccccc1 (stereo not drawn),–,inactive: 14.4%
Cc1ccc(-c2nc(=O)[nH]c3ccc(Br)cc23)cc1,"inconclusive [inhibitor, single point]",–
CC(C)(C)c1ccc(CN2C(=O)c3ccccc3S2(=O)=O)cc1,"inconclusive [inhibitor, single point]",–
COc1cccc(OCCCN2CCN(S(=O)(=O)c3ccc(NC(C)=O)cc3)CC2)c1,"inconclusive [inhibitor, single point]",–
CCc1ccc(CNC(=O)c2ccc(Cn3c(=O)c4cccn4c4cccnc43)cc2)cc1,"inconclusive [inhibitor, partial curve]",–
O=C1CC(c2ccc3ccccc3c2)NN1 (stereo not drawn),active: 25.9 µM,–
COc1ccc(NC(=O)CC2C(=O)N(CCc3ccccc3)C(=S)N2Cc2cccnc2)cc1 (stereo not drawn),"inconclusive [inhibitor, partial curve]",–
COCCn1c(SCC(=O)c2ccc(F)cc2)nnc1C(C)C,"inconclusive [inhibitor, single point]",–
O=c1[nH]c(/C=C/c2cccnc2)c([N+](=O)[O-])c(=O)[nH]1,–,inactive: 27.9%
O=C(Nc1ccc2c(c1)OCCO2)C(c1ccnc2ccccc12)n1c(=O)c(-c2ccco2)nc2ccccc21 (stereo not drawn),active: 7.31 µM,–
O=C1C(=O)N(c2ccccn2)C(c2ccc(F)cc2)/C1=C(/O)c1ccc(Br)cc1 (stereo not drawn),–,inactive: -9.24%

SMILES,Potency,"activity change, negative = growth inhibition"
Cc1ccc(Nc2nc(-c3ccc(O)c(O)c3)cs2)nc1,active: 1.03 µM,–
CCOc1ccc(OCC)c(-c2c(=O)n(OCc3ccc(C(C)(C)C)cc3)c3ccccc3[n+]2[O-])c1,active: 20.6 µM,–
CCc1cccc(C)c1NC(=O)c1cc(CN2CCCC2)on1,–,inactive: 1.2%
COc1ccc2nc(SCC(=O)N(C)C3CCCCC3)[nH]c2c1,–,inactive: -16.1%
CC(C)Cn1cc(C(=O)N2CCN(c3ccccn3)CC2)c2c3ccccc3n(C)c2c1=O,"inconclusive [inhibitor, single point]",–
COc1ccc(S(=O)(=O)N[C@H](C(=O)N2CC[C@@]3(O)CCCC[C@H]3C2)c2ccccc2)cc1,"inconclusive [inhibitor, partial curve]",–
COc1ccc(NC(=O)c2cccc(-c3ccc(O)cc3)c2)cn1,active: 14.6 µM,–
CCN(CC(=O)Nc1cccc(S(=O)(=O)N(C)c2ccccc2)c1)Cc1ccccc1,active: 18.4 µM,–
O=C(CNC(=O)c1ccccc1)OCC(=O)N1N=C(c2ccc(Cl)cc2)CC1c1ccco1 (stereo not drawn),–,inactive: 1.09%
Nc1nc(SCc2ccccc2)sc1C(=O)N1CCCCC1,"inconclusive [inhibitor, partial curve]",–
Cc1cccn2c(=O)c3cc(C#N)c(=NC(=O)c4cccs4)n(CCCOC(C)C)c3nc12,"inconclusive [inhibitor, single point]",–
CC(C)OC(=O)CC(=O)CC(O)c1cccc([N+](=O)[O-])c1 (stereo not drawn),–,inactive: -7.73%
COC(=O)c1c(C)c2c(c(C)c1O)OC(=O)c1c(C)c(Cl)c(O)c(Cl)c1O2,"inconclusive [inhibitor, full curve]",–
CCc1nnc2c(Nc3cc(OC)c(Cl)cc3OC)nc3ccccc3n12,"inconclusive [inhibitor, single point]",–
CCCc1cc(=O)oc2c(C)c(OC(C)C(=O)NCC(O)c3ccccc3)ccc12 (stereo not drawn),"inconclusive [inhibitor, single point]",–
N#Cc1c(N2C(=O)C3C4C=CC(C4)C3C2=O)sc2c1CCC2 (stereo not drawn),"inconclusive [inhibitor, single point]",–
Cc1nc(SCC(=O)N2CCNC2=O)c2ccccc2n1,"inconclusive [inhibitor, single point]",–
COc1cc(C(=O)N2CCCCCCC2)cc(OC)c1OC,"inconclusive [inhibitor, single point]",–
CC(CNC(=O)Cn1ccc2cc(S(=O)(=O)N3CCCC3)ccc21)c1ccccc1 (stereo not drawn),active: 18.4 µM,–
CC(C)c1ccc(NC2CCCN(C(=O)c3cc(C(C)C)[nH]n3)C2)cc1 (stereo not drawn),"inconclusive [inhibitor, single point]",–
Cc1cccc(CSc2nc3ccccc3c(=O)n2C)c1,"inconclusive [inhibitor, single point]",–
O=C(CCS(=O)(=O)c1ccc(Cl)cc1)Nc1ccc(N2CCOCC2)cc1,active: 20.6 µM,–
Cc1cc(NC(=O)CN2CCN(C)CC2)no1,"inconclusive [inhibitor, single point]",–
